# According to patent US20250011428A1:
# B1: CD3_12 (antibody, human IgG1, lambda)
# heavy: EVQLVESGGGLVQPGGSLKLSCAASGFTFNTYAMNWVRQASGKGLEWVGRIRSKYNNYATYYADSVKDRFTISRDDSKSTLYLQMNSLKTEDTAVYYCVRHGNFGNSYVSWFAYWGQGTLVTVSSASTKGPSVFPLAPSSKSTSGGTAALGCLVKDYFPEPVTVSWNSGALTSGVHTFPAVLQSSGLYSLSSVVTVPSSSLGTQTYICNVNHKPSNTKVDKRV[human IgG1 Fc with L235C N297C (EU numbers) cut from this listing]
# light: QAVVTQEPSLTVSPGGTVTLTCRSSTGAVTTSNYANWVQQKPGQAPRGLIGGTNKRAPWTPARFSGSLLGDKAALTLSGAQPEDEAEYFCALWYSNLWVFGGGTKLTVLGQPKAAPSVTLFPPSSEELQANKATLVCLISDFYPGAVTVAWKADSSPVKAGVETTTPSKQSNNKYAASSYLSLTPEQWKSHRSYSCQVTHEGSTVEKTVAPTECS
# B2: IgG4_CD3_S228P (antibody)
# heavy: EVQLVESGGGLVQPGGSLKLSCAASGFTFNTYAMNWVRQASGKGLEWVGRIRSKYNNYATYYADSVKDRFTISRDDSKSTLYLQMNSLKTEDTAVYYCVRHGNFGNSYVSWFAYWGQGTLVTVSSASTKGPSVFPLAPCSRSTSESTAALGCLVKDYFPEPVTVSWNSGALTSGVHTFPAVLQSSGLYSLSSVVTVPSSSLGTKTYTCNVDHKPSNTKVDKRV[human IgG4 Fc with S228P (EU numbers) cut from this listing]
# light: B1 light
# B3: IgG4_CD3_9 (antibody)
# heavy: EVQLVESGGGLVQPGGSLKLSCAASGFTFNTYAMNWVRQASGKGLEWVGRIRSKYNNYATYYADSVKDRFTISRDDSKSTLYLQMNSLKTEDTAVYYCVRHGNFGNSYVSWFAYWGQGTLVTVSSASTKGPSVFPLAPCSRSTSESTAALGCLVKDYFPEPVTVSWNSGALTSGVHTFPAVLQSSGLYSLSSVVTVPSSSLGTKTYTCNVDHKPSNTKVDKRV[human IgG4 Fc with L235C (EU numbers) cut from this listing]
# light: B1 light
# B4: IgG4_CD3_WT (antibody)
# heavy: EVQLVESGGGLVQPGGSLKLSCAASGFTFNTYAMNWVRQASGKGLEWVGRIRSKYNNYATYYADSVKDRFTISRDDSKSTLYLQMNSLKTEDTAVYYCVRHGNFGNSYVSWFAYWGQGTLVTVSSASTKGPSVFPLAPCSRSTSESTAALGCLVKDYFPEPVTVSWNSGALTSGVHTFPAVLQSSGLYSLSSVVTVPSSSLGTKTYTCNVDHKPSNTKVDKRV[human IgG4 Fc cut from this listing]
# light: B1 light
# Molecular target: Gamma receptors FcγRI, FcγRII, and FcγRIII expressed on THP-1 cells
# Test: cell-based or functional assay
row,Maximum response in RGA assay (LU),Binder
1,11600,B1
2,34000,B2
3,5650,B3
4,36100,B4
